In all, about 410,000 compounds went through this assay and about 6,400 (1.6%) were called active. Inconclusive results, whose numbers are uncertain, are shown with a selection of clear calls. Calls follow the shape of the dose curve; as a rule, active = well fitted inhibition curve with a large enough effect; inconclusive = small, poorly fitted or top-dose-only effect; inactive = no such curve, though single readings can be large or run the other way. Potencies of inconclusive entries are left out as doubtful fits.
target: Glucagon-like peptide 1 receptor (Homo sapiens) (UniProt P43220); assay: qHTS of GLP-1 Receptor Inverse Agonists (Inhibition Mode); conditions: HEK293 GLP-1R CRE-luciferase, luminescence, 24 h, GLP-1R form is constitutively active; activity change, negative = inhibition: at 38.3 µM (top of the series) unless noted; also: nearly all actives have a fitted effect of over 55% in size
Chain of UniProt P43220 (P43220 whole entry, looked up): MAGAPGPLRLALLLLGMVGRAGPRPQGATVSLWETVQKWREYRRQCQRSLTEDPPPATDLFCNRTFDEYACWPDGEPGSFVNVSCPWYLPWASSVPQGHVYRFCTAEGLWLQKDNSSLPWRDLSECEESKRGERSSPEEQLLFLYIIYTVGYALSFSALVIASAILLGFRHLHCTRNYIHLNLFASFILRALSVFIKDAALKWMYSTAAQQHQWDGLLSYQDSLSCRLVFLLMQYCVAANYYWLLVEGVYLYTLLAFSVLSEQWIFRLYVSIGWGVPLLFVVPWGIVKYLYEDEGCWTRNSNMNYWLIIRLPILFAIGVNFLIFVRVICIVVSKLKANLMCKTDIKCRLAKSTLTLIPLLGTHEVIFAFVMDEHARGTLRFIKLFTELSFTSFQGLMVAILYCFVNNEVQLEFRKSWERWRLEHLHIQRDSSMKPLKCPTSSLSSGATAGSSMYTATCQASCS
Method in brief: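 Inverse agonism was detected as reduced cAMP-driven luciferase luminescence after 24 h compound treatment. The cells were HEK293 clones expressing constitutively active human GLP-1R with the reporter. Reporter-only and GPR119 cell lines served as counterscreen controls.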
% is scaled to controls: 0 for no effect and ±100 for the full control effect; potency is read from the fitted curve at half-maximal effect; tags tell the direction and shape of the fitted curve.

Row | SMILES | Potency | activity change, negative = inhibition
1 | C[C@@H]1CC=C[C@H]2[C@H]1C(=O)N(Cc1ccccc1)[C@H]2c1ccc(/C=C/c2ccccc2)cc1F | inconclusive [inhibitor, partial curve, poor fit] | –
2 | C=CCN1C(=O)[C@@H]2Cc3c([nH]c4ccccc34)C(c3cc(OC)c(OC)c(OC)c3)N2C1=S (stereo partly drawn) | inconclusive [inhibitor, single point] | –
3 | COc1cccc(CNC(=O)CCS(=O)(=O)c2cccc3nonc23)c1 | – | inactive: -24.6%
4 | CC/C(=N\NC(=O)c1ccc2c(c1)OCO2)c1ccccc1 | inconclusive [inhibitor, partial curve, poor fit] | –
5 | CCCCCCNC(=O)c1cn(CC)c2cc(N3CCN(C)CC3)c(F)cc2c1=O | inconclusive [inhibitor, partial curve] | –
6 | Fc1ccc(-c2nnc(NC3=NCCCCC3)o2)cc1 | active: 1 µM | –
7 | CCc1ccc(NC(=O)CSc2nccn(-c3ccc4c(c3)OCCO4)c2=O)cc1 | inconclusive [inhibitor, single point] | –
8 | CC(C)CC1NC(=O)N(CC(=O)Nc2ccc(OC(F)F)cc2)C1=O (stereo not drawn) | – | inactive: -16.8%
9 | COc1ccc(C(O)(C(C)C)C(CN2CCOCC2)c2ccccc2)cc1 (stereo not drawn) | inconclusive [inhibitor, partial curve, poor fit] | –
10 | COc1ccc(SC[C@H](Cc2ccccc2)N2CC[C@@H](NC(=O)OCc3ccccc3)CCC2=O)cc1 | inconclusive [inhibitor, partial curve, poor fit] | –
11 | NCCNC(=O)Cn1c(=O)c2c3c(sc2n(Cc2ccccc2)c1=O)CCCC3 | inconclusive [inhibitor, single point] | –
12 | COc1ccccc1CNC(=O)CCn1c(=O)c2ccccc2n(CC(=O)Nc2ccc(C)cc2C)c1=O | – | inactive: -18.5%
13 | CCN1/C(=C/c2ccc3cccc(C)c3[n+]2CC)Sc2ccccc21 | inconclusive [inhibitor, partial curve, poor fit] | –
14 | O=C(NN=C1c2ccccc2-c2ccccc21)c1ccccc1 | inconclusive [inhibitor, single point] | –
15 | CC(=O)Nc1cccc(-c2csc(C(C)(O)c3ccc(F)c(F)c3)n2)c1 (stereo not drawn) | inconclusive [inhibitor, single point] | –
16 | COc1ccc(Nc2nc(Cl)nc(NCc3ccco3)n2)c(OC)c1 | – | inactive: 13%
17 | CSCCC(NS(=O)(=O)c1cccc(C(F)(F)F)c1)C(=O)Nc1ccccc1N1CCCC1 (stereo not drawn) | active: 10 µM | –
18 | Cc1cc(C(=O)Nc2ccc(Cl)cc2)c(C)n1Cc1cccs1 | inconclusive [inhibitor, full curve, poor fit] | –
19 | CC(C)(C)C(=O)CSc1nc2c(c(-c3cccs3)c1C#N)CCC2 | inconclusive [inhibitor, partial curve, poor fit] | –
20 | O=C1N[C@H](Cc2ccccc2)COC(=O)[C@H](Cc2ccc(F)cc2)C/C=C\C[C@H]1CC(=O)N(CCO)Cc1ccccc1 | inconclusive [inhibitor, partial curve, poor fit] | –
21 | CCN(CC)c1ccc(NC(=O)c2ccccc2Br)cc1S(=O)(=O)Nc1ccccc1OC | inconclusive [inhibitor, partial curve, poor fit] | –

Row | SMILES | Potency | activity change, negative = inhibition
22 | CC(=O)Nc1ccc(C(=O)N/N=C/c2ccccc2OCc2ccccc2)cc1 | inconclusive [inhibitor, single point] | –
23 | C#CCOCCOCCOCCNc1nc(N2CCN(C(=O)CCCCCCCCCCNC(=O)[C@H](CO)n3cc(CCCSC)nn3)CC2)nc(N2CCN(C(=O)CCCCCCCCCCNC(=O)[C@H](CCCN=C(N)N)n3cc(C[C@@H](C)CC)nn3)CC2)n1 | inconclusive [inhibitor, single point] | –
24 | COc1ccc(CC(=O)Nc2ccccc2C(=O)NCCc2ccccc2)cc1 | inconclusive [inhibitor, partial curve] | –
25 | Cc1ccc(-c2nc3c(Cl)cc(C(F)(F)F)cn3c2Cc2ccsc2)cc1 | – | inactive: 0.433%
26 | CCCCn1cc(C(=O)c2cc(Br)ccc2O)cc(C#N)c1=O | inconclusive [inhibitor, partial curve, poor fit] | –
27 | CN(NC(=S)Nc1ccc(OC(F)F)cc1)C(=S)Nc1ccc(OC(F)F)cc1 | inconclusive [inhibitor, single point] | –
28 | COC(=O)c1cccc(CC2(C)C(=O)Nc3cc(-c4ccccc4Cl)ccc32)c1 (stereo not drawn) | inconclusive [inhibitor, single point] | –
29 | CCOc1ccc(NC(=S)NC(=O)c2c(Cl)cnn2CC)c([N+](=O)[O-])c1 | – | inactive: 4.54%
30 | CCOC(=O)[C@@H]1[C@H]2COc3ccc(Br)cc3[C@H]2N2C(=O)N(c3ccc(Br)cc3)C(=O)[C@]12C | inconclusive [inhibitor, single point] | –
31 | CCOC(=O)C1=C(CS(=O)(=O)c2ccc(Br)cc2)NC(=O)NC1c1ccccc1 (stereo not drawn) | – | inactive: -15.5%
32 | COc1ccc(OCC(=O)N/N=C2\CCCCc3ccccc32)cc1 | inconclusive [inhibitor, partial curve, poor fit] | –
33 | CCN(CC(=O)Nc1ccccc1OC)C(=O)CSCc1ccc(C)cc1 | inconclusive [inhibitor, full curve, poor fit] | –
34 | Cc1ccc(OCC(=O)Nc2ccc(S(=O)(=O)N3CCCC3)cc2)cc1 | inconclusive [inhibitor, single point] | –
35 | COc1ccc(N2CCN(C(=O)C(Cc3ccccc3)n3cccc3)CC2)cc1 (stereo not drawn) | inconclusive [inhibitor, partial curve, poor fit] | –
36 | Cc1ccc(CCNC(=O)C2CCCN(C(=O)c3cc4sccc4n3C)C2)cc1 (stereo not drawn) | inconclusive [inhibitor, partial curve, poor fit] | –
37 | CC(C)c1cc(C(=O)Nc2cc(Cl)ccc2O)no1 | – | inactive: -26.6%
38 | Cc1ccc(-n2cc(CNC(C)c3cnn(C)c3C)c(-c3ccc(F)cc3)n2)cc1 (stereo not drawn) | inconclusive [inhibitor, partial curve, poor fit] | –
39 | COc1ccccc1C(=O)Nc1ccc2c(c1)CN(Cc1cnc(C)s1)CC2 | – | inactive: 6.23%
40 | COc1ccc(-c2[nH]ncc2CN2CCN(Cc3cccs3)CC2)cc1F | – | inactive: 6.89%
41 | Cc1[nH]c2ccccc2c1SCC(=O)Nc1nccs1 | inconclusive [inhibitor, partial curve, poor fit] | –
42 | C#CCNC(=O)C1=C[C@@H](C2CCCCC2)[C@H](CCCO)[C@@H](OCC)O1 | inconclusive [inhibitor, partial curve, poor fit] | –

Row | SMILES | Potency | activity change, negative = inhibition
43 | O=C(NCCCCc1ccccc1)c1cccc(NC(=O)C2CCCCC2)c1 | active: 11.2 µM | –
44 | CCCNC(=O)c1onc(CSc2ccc(F)cc2)c1C(=O)NCCC | inconclusive [inhibitor, single point] | –
45 | CC1CN(C(=O)c2ccccc2OCc2ccc(Cl)cc2Cl)CC(C)O1 (stereo not drawn) | active: 10 µM | –
46 | COc1cccc2c1C(=O)c1c(O)c3c(c(O)c1C2=O)C[C@@](O)(C(=O)CO)C[C@@H]3OC1CC(N)C(O)C(C)O1 (stereo partly drawn) | active: 4.47 µM | –
47 | O=C(O)C(c1ccccc1)N1C(=O)/C(=C\c2ccc(-c3ccc(Br)cc3)o2)SC1=S (stereo not drawn) | – | inactive: -5%
48 | COc1ccccc1N1CCN(C2CCN(C(=O)c3cccs3)CC2)CC1 | – | inactive: 1.1%
49 | CSC(=NC#N)N1CCN(C(c2ccccc2)c2ccccc2)CC1 | inconclusive [inhibitor, partial curve, poor fit] | –
50 | Cc1ccc(C)c(C(=O)CCC(=O)N2CCN(c3cccc(C(F)(F)F)c3)CC2)c1 | inconclusive [inhibitor, single point] | –
51 | O=C(NCc1ccccc1)c1ccc(Cl)cc1[N+](=O)[O-] | inconclusive [inhibitor, partial curve] | –
52 | O=C(c1cc(COc2ccc(F)cc2F)on1)N1CCN(C(=O)c2ccco2)CC1 | – | inactive: 0.514%
53 | COc1ccc(C2=NS(=O)(=O)N(C)C(C(=O)Nc3cc(OC)c(OC)c(OC)c3)=C2)cc1 | inconclusive [inhibitor, partial curve, poor fit] | –
54 | NC(=O)CC(NC(=O)c1ccccc1)c1ccc(N2CCc3ccccc3C2)c([N+](=O)[O-])c1 (stereo not drawn) | inconclusive [inhibitor, partial curve, poor fit] | –
55 | O=C(NCc1ccccc1)C1(c2cccc(F)c2)CCCC1 | inconclusive [inhibitor, partial curve, poor fit] | –
56 | Cc1c(Cl)cccc1NC(CC(=O)c1ccccc1)C(=O)O (stereo not drawn) | – | inactive: -29.3%
57 | CCOC(=O)C1CCCN(c2nc3ccccc3nc2C(C#N)C(=O)OCC)C1 (stereo not drawn) | inconclusive [inhibitor, partial curve, poor fit] | –
58 | CS(=O)(=O)NN1C(=O)c2ccccc2NC1c1cc2ccccc2nc1Cl (stereo not drawn) | – | inactive: 5.4%
59 | c1ccc(-c2c[nH]c(-c3ccccc3)c2)cc1 | inconclusive [inhibitor, single point] | –
60 | COc1cccc(C(c2sc3nc(C)nn3c2O)N2CCN(c3ccccc3F)CC2)c1 (stereo not drawn) | inconclusive [inhibitor, single point] | –
61 | CCOC(=O)c1ccc(NC(=O)N2CCCCCC2)cc1 | inconclusive [inhibitor, single point] | –
62 | CN(C)CCCN(C(=O)c1ccc2c(c1)CCCC2)c1nc2c(F)cccc2s1 | inconclusive [inhibitor, single point] | –
63 | CCOC(=O)c1sc2ccccc2c1S(=O)(=O)Nc1cccc(C(F)(F)F)c1 | inconclusive [inhibitor, partial curve, poor fit] | –
